Numbering of substitutions follows the chain as printed. Names and notes keep the numbering of the source. ± gives the standard deviation of the averaged measurements. Laboratory Escherichia coli strains with one amino-acid change in an essential protein, pooled on minimal glucose agar with carbenicillin or gentamicin at twice the control MIC (plus kanamycin and chloramphenicol for the plasmids), 48 h. Fold change of barcode share against drug-free plates; higher = less susceptible. Active = above 20 in both replicates (the paper's putatively resistant). '<' = one read or none on drug, '>' = one read or none on a drug-free plate. Shares are relative, so most strains fall below 1 when a few take over. Listed are strains with at least 15 reads on both drug-free plates, and hits; most hits rest on fewer reference reads. Replicate rank correlation about 0.5. Edits are read from barcodes.
B1: lptG V64Q (protein)
chain: MQPFGVLDRYIGKTIFTTIMMTLFMLVSLSGIIKFVDQLKKAGQGSYDALGAGMYTLLSVPKDQQIFFPMAALLGALLGLGMLAQRSELVVMQASGFTRMQVALSVMKTAIPLVLLTMAIGEWVAPQGEQMARNYRAQAMYGGSLLSTQQGLWAKDGNNFVYIERVKGDEELGGISIYAFNENRRLQSVRYAATAKFDPEHKVWRLSQVDESDLTNPKQITGSQTVSGTWKTNLTPDKLGVVALDPDALSISGLHNYVKYLKSSGQDAGRYQLNMWSKIFQPLSVAVMMLMALSFIFGPLRSVPMGVRVVTGISFGFVFYVLDQIFGPLTLVYGIPPIIGALLPSASFFLISLWLLMRKS
B2: lptG V64D (protein)
chain: B1 chain with Q64D
B3: lptG V64P (protein)
chain: B1 chain with Q64P
B4: lptG F68A (protein)
chain: B1 chain with Q64V, F68A
B5: lptG F68W (protein)
chain: B1 chain with Q64V, F68W
B6: lptG F68Q (protein)
chain: B1 chain with Q64V, F68Q
B7: lptG F68D (protein)
chain: B1 chain with Q64V, F68D
B8: lptG F68P (protein)
chain: B1 chain with Q64V, F68P
B9: lptG L77A (protein)
chain: B1 chain with Q64V, L77A
B10: lptG L77W (protein)
chain: B1 chain with Q64V, L77W
B11: lptG L77Q (protein)
chain: B1 chain with Q64V, L77Q
B12: lptG L77D (protein)
chain: B1 chain with Q64V, L77D
B13: lptG L77P (protein)
chain: B1 chain with Q64V, L77P

target: Escherichia coli (laboratory strain); assay: barcode share on antibiotic plates over drug-free plates; higher = less susceptible; conditions: antibiotic: carbenicillin; 2× MIC (3.1 µg/mL)
Method: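 A pool of E. coli strains, each edited to carry one amino-acid change in an essential protein, was grown for 48 h on minimal glucose agar with or without antibiotic; strain barcodes were sequenced; mean of two replicates.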

Row | Protein | fold change of barcode share
1 | B1 | 0.656 ± 0.15
2 | B2 | 0.44 ± 0.23
3 | B3 | 0.469 ± 0.3
4 | B4 | 0.479 ± 0.17
5 | B5 | 0.467 ± 0.13
6 | B6 | 0.576 ± 0.14
7 | B7 | 0.558 ± 0.011
8 | B8 | 0.381 ± 0.053
9 | B9 | 0.514 ± 0.1
10 | B10 | 0.601 ± 0.052
11 | B11 | 0.487 ± 0.18
12 | B12 | 0.407 ± 0.12
13 | B13 | 0.275 ± 0.089

same assay, conditions: antibiotic: gentamicin; 2× MIC (MIC 0.45 µg/mL)

Row | Protein | fold change of barcode share
14 | B1 | 0.172 ± 0.23
15 | B2 | 0.00369 ± 0.0019
16 | B3 | 0.00862 ± 0.003
17 | B4 | 0.0381 ± 0.046
18 | B5 | 0.0347 ± 0.037
19 | B6 | 0.0127 ± 0.0095
20 | B7 | 0.0623 ± 0.08
21 | B8 | 0.074 ± 0.099
22 | B9 | 0.00314 ± 0.0027
23 | B10 | 0.00378 ± 0.0035
24 | B11 | 0.00969 ± 0.0047
25 | B12 | 0.00197 ± 0.00043
26 | B13 | < 0.00519

From the supplement of paper PMC11876631
